# According to PubChem BioAssay AID493208 (National Center for Advancing Translational Sciences (NCATS), 2011):
# The campaign covered roughly 44,000 compounds. About 340 (0.77%) were called active. About 5% were inconclusive and are not listed. Calls follow the shape of the dose curve; as a rule, active = well fitted inhibition curve with a large enough effect; inconclusive = small, poorly fitted or top-dose-only effect; inactive = flat fitted curve, though single readings scatter. Some of the results follow.
# Test: Acumen qHTS Assay for Inhibitors of the mTORC1 Signaling Pathway in MEF (Tsc2-/-, p53-/-) Cells: Sytravon; also: nearly all actives have a fitted effect of over 50% in size;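 as to activity change, negative = inhibition: plate controls were DMSO for no effect and rapamycin for full effect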
# Conditions: phospho-rpS6 immunofluorescence/PI, 24 h; series mostly up to 38.3 µM; activity change, negative = inhibition: at the top concentration
# Outline: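 Cell-based qHTS: Tsc2-/- p53-/- MEF, 24 h cpd, 37 °C; fix/perm, anti-phospho-S6 Alexa-488 + PI; Acumen 488 nm scan; pS6/PI ratio, % positive cells; rapamycin 7.5 nM = inhibition ref; PI count = viability.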
# Potency is read from the fitted curve at half-maximal effect.
Structure (SMILES),"activity change, negative = inhibition",Potency
COc1ccc(-c2cc3nc(-c4ccccc4)cc(C(F)(F)F)n3n2)cc1,inactive: 1.94%,
COc1ccc(CCNC(=O)Cc2c(C)c3c(cc(C)c4c(C)coc43)oc2=O)cc1,inactive: 2.87%,
COC(=O)c1cc(NC(=O)c2oc(=O)c3ccccc3c2-c2ccccc2)cc(C(=O)OC)c1,inactive: 2.74%,
Cc1ccc(NC(=O)CN2C(=O)CSc3ccc(S(=O)(=O)N4CCCC4)cc32)cc1F,inactive: -18.9%,
COc1cc(OC)c(NC(=O)c2nnn(Cc3ccc(C)cc3)c2N)cc1Cl,inactive: 0.0607%,
Cc1ccc(NC(=O)c2c(NC(=O)c3ccco3)sc3c2CCC(C(C)(C)C)C3)c(C)c1 (centres undefined),inactive: 6.15%,
O=C(Cc1ccc(F)cc1)NC1CC(=O)N(c2ccc3c(c2)OCCO3)C1 (centres undefined),inactive: -12.3%,
COc1cccc(-c2cn3c(n2)sc2cc(C(=O)NC4CCCCCC4)ccc23)c1,inactive: 4.9%,
O=C(Cn1ncc2c3ccccc3n(Cc3ccc(Cl)cc3)c2c1=O)N1CCCCCC1,inactive: 1.03%,
COc1ccc(Br)cc1CNC(=O)Cn1c(=O)c2cccn2c2ccc(F)cc21,inactive: -12.2%,
Cc1ccccc1Cn1cc(CCC(=O)NC(C)c2ccccc2)c2ccccc21 (centres undefined),inactive: -3.75%,
Cc1cc(C)c2oc(-c3cccc(NC(=O)c4ccc(Br)o4)c3)nc2c1,inactive: 10%,
CCC(C)c1ccc(OCC(=O)Nc2cccc(-c3nc4ncccc4o3)c2)cc1 (centres undefined),inactive: -20.6%,
CCOc1ccc(NC(=O)c2oc3ccccc3c2NC(=O)Cc2ccc(F)cc2)cc1,inactive: -10.1%,
Cc1ccc(S(=O)(=O)N(CC(=O)Nc2ccc(C(C)C)cc2)Cc2ccccc2)cc1,inactive: 4.73%,
CC(=O)N1c2ccc(S(=O)(=O)NCC3CCC(C(=O)NC(C)(C)C)CC3)cc2CC1C (centres undefined),inactive: -3.89%,
Cc1ccccc1NC(=O)CCC(=O)N1CCSc2ccccc21,inactive: -0.283%,
O=C(NCC(c1cccs1)S(=O)(=O)c1cccs1)c1ccccc1F (centres undefined),inactive: 1.83%,
Clc1ccccc1N1CCN(c2ncnc3c2c(-c2ccccc2)cn3-c2ccccc2)CC1,inactive: 5.98%,
CCN(CC)c1nn2c(=O)c(C(=O)NCc3ccc(OC)cc3OC)cnc2s1,inactive: 1.43%,

Structure (SMILES),"activity change, negative = inhibition",Potency
Cc1ccc(-n2nc3ccc(NC(=O)c4oc5ccccc5c4C)cc3n2)cc1,inactive: 0.544%,
O=C(Nc1ccc2c(c1)CCCN2C(=O)c1cccs1)c1cccc(C(F)(F)F)c1,inactive: 1.21%,
CCN(C(=O)c1noc2c1COc1ccc(C)cc1-2)c1cccc(C)c1,inactive: 6.76%,
Cc1cccc(N2CCN(C(=O)c3cc(S(=O)(=O)N4CCC(C)CC4)cn3C)CC2)c1C,inactive: -5.56%,
CC(C)(C)OC(=O)N1CCC(c2c(C(=O)NCCN3CCC(Cc4ccccc4)CC3)cnn2-c2cccc(Cl)c2)CC1,,active: 14.7 µM
O=C(NCc1ccc(Cl)cc1)C(=O)NCC(c1cccs1)S(=O)(=O)c1ccc(Cl)cc1 (centres undefined),inactive: -8.64%,
O=C(NCCCN1CCN(c2ccccc2)CC1)c1nnc(Cc2c(F)cccc2Cl)o1,inactive: -5.23%,
CCOc1ccc(CCNC(=O)C2CCN(c3ncnc4c3nc3n4CCCCC3)CC2)cc1,inactive: 0.071%,
Cc1cccc(C)c1NC(=O)Cn1nnc(S(=O)(=O)c2ccccc2)c1N,inactive: -9.68%,
O=C1CN(C(=O)c2ccc(S(=O)(=O)N3CCCC3)cc2)C(c2ccccc2)c2cc(F)ccc2N1 (centres undefined),inactive: 3.02%,
Cc1ccccc1-c1noc(-c2ccccc2OCC(=O)Nc2cccc([N+](=O)[O-])c2)n1,inactive: -1.94%,
N#Cc1c(-c2ccccc2)cc(-c2ccccc2)nc1SCC(O)CS(=O)(=O)Cc1ccc(Cl)cc1 (centres undefined),inactive: 3.5%,
CCn1cc(/C=C(\NC(=O)c2cc(OC)c(OC)c(OC)c2)C(=O)NCCCn2ccnc2)c2ccccc21,inactive: -2.8%,
Cc1cc(NC(=O)Cc2ccccc2)cc(-c2nc3ccccc3o2)c1O,inactive: 4.84%,
CCOC(=O)c1cc2c(=O)n3ccccc3nc2n(C(C)C)c1=NC(=O)C(C)(C)Oc1ccc(Cl)cc1,inactive: 2.63%,
Cc1c(C(=O)NCCN(C)C)oc2c1-c1nn(Cc3cccc(Cl)c3)cc1CC2,inactive: -1.51%,
Cc1nc(-c2ccc(F)cc2)sc1CCNC(=O)Cc1ccc(F)cc1,inactive: 10.3%,
CN(C)c1ccc(Nc2ncnc3c2c(-c2ccccc2)cn3-c2cccc(Cl)c2)cc1,inactive: 0%,
Cc1cccc(S(=O)(=O)c2cn(Cc3ccccc3)c3cc(N4CCCCC4)c(F)cc3c2=O)c1,inactive: -11.2%,
COc1ccc(CCC(=O)NC2CC(=O)N(c3ccc(F)cc3)C2)cc1 (centres undefined),inactive: -5.5%,

Structure (SMILES),"activity change, negative = inhibition",Potency
CCN(CC)C(=O)c1c(-c2ccccc2)c(-c2ccccc2)nn(CC)c1=O,inactive: -2.37%,
COc1ccccc1N1CCN(C(=O)CN2C(=O)COc3ccc(S(=O)(=O)N4CCOCC4)cc32)CC1,inactive: -7.48%,
CCN(Cc1nc(-c2ccc(OC)c(OC)c2)no1)S(=O)(=O)c1ccc(OC)cc1,inactive: 0.542%,
COc1ccc(-c2nc3sc(CCNC(=O)c4ccc(Br)o4)c(C)n3n2)cc1,inactive: 0.559%,
O=C(CSc1nc(=O)n(Cc2ccccn2)c2c1CCC2)Nc1ccccc1,inactive: -3.27%,
CSc1ccccc1NC(=O)CCS(=O)(=O)c1nc(-c2ccc3c(c2)OCO3)cc(C(F)(F)F)n1,inactive: -4.24%,
COc1cc(CNC(=O)c2cnc(SC)nc2-c2ccccc2)cc(OC)c1OC,inactive: -8.15%,
Cc1ccc(S(=O)(=O)C(CNS(=O)(=O)c2cc(F)ccc2F)c2cccs2)cc1 (centres undefined),inactive: -0.135%,
CC(C)(C)OC(=O)N1CCC(c2c(C(=O)NC3CCCCC3)cnn2-c2ccc(F)cc2F)CC1,inactive: 0.891%,
O=C(O)c1ccccc1C(=O)Nc1ccc(Br)c2cccnc12,inactive: -1.28%,
CCN1CCN(c2oc(-c3ccc(COc4ccccc4C)o3)nc2C#N)CC1,inactive: -20.8%,
CCCNC(=O)c1ccc2c(c1)nc1n2CCCCC1,inactive: -9.51%,
Cc1noc(C)c1S(=O)(=O)N(CC(=O)Nc1ccc(F)cc1F)c1ccc(C(C)C)cc1,inactive: -1.93%,
Cc1ccc(NC(=O)C2CCN(S(=O)(=O)c3cccc4nsnc34)CC2)cc1F,inactive: -19.3%,
COc1ccc(Cn2ccc3nc(C)c(C(=O)Nc4cccc(SC)c4)cc3c2=O)cc1,inactive: -1.43%,
COc1cccc(CNC(=O)Cn2ncn3nc(-c4cccs4)cc3c2=O)c1,inactive: -0.532%,
COc1ccc(NC(=O)C(=O)NCCc2csc3nc(-c4ccccc4F)nn23)cc1OC,inactive: 6.17%,
CC(=O)c1ccc(NS(=O)(=O)c2ccc3c(c2)NC(=O)CCS3)cc1,inactive: -3.3%,
CCn1cc2nc(SCc3ccccc3Cl)n(Cc3ccc(OC)cc3)c(=O)c2n1,inactive: 9.2%,
